Out of some 310,000 compounds screened, about 14,000 (4.5%) showed an effect of 50% or more. The effect is printed as a negative number. This is one part of the list.
Target: human ether-à-go-go-related gene (hERG) potassium channel (human, UniProt Q12809)
Test: primary screen, population patch clamp on CHO cells stably expressing hERG
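Further: peak tail current of the secondary pulse compared with the same well before compound.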

human ether-à-go-go-related gene (hERG) potassium channel, sequence (Q12809 whole entry, looked up): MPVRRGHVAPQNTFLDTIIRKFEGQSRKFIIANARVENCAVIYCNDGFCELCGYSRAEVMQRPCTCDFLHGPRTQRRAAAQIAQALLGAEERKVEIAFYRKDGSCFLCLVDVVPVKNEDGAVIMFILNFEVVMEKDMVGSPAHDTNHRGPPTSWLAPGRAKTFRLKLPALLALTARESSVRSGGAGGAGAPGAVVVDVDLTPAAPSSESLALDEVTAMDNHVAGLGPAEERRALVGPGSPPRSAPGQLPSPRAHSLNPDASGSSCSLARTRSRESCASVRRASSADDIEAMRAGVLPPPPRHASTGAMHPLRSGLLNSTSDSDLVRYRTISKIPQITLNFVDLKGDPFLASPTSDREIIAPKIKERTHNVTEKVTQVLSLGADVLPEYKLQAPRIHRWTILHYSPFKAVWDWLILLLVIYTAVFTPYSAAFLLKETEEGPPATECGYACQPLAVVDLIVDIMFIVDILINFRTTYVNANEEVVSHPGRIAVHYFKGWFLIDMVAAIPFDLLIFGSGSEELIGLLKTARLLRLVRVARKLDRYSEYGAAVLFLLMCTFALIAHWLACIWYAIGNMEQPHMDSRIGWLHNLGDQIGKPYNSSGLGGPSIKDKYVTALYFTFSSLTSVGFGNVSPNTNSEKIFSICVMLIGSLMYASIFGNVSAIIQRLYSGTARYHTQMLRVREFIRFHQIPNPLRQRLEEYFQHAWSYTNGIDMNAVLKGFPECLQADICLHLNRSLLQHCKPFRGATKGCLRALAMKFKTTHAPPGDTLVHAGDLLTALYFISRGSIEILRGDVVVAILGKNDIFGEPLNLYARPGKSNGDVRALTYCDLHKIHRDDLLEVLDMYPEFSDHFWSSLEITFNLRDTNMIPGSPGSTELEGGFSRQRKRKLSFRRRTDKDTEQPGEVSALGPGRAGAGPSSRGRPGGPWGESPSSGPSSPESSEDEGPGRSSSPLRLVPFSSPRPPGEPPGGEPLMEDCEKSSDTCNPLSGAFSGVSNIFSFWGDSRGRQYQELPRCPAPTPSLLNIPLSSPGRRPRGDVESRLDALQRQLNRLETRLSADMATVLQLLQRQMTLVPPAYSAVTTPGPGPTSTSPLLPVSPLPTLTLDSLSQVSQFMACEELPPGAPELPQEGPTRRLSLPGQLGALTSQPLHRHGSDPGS

Question: How did the “hERG current change (%, negative = inhibition) at 10uM” value turn out when `Cc1ccccc1NC(=S)NCc1ccco1` was run?
Answer: The value was 6.52%.

Question: `COc1ccc(-c2noc(CN3CCCC(OCc4ccccn4)C3)n2)cc1` (stereo not shown) was tested. Which “hERG current change (%, negative = inhibition) at 10uM” value did it give?
Answer: Its value is -1.84%.

Question: For `O=C(NCc1ccco1)C1CCC(N2C(=O)C3C4CCC(C4)C3C2=O)CC1` (stereo not shown), which “hERG current change (%, negative = inhibition) at 10uM” value is on record?
Answer: Its value is 16.7%.

Question: Which “hERG current change (%, negative = inhibition) at 10uM” value does the source give for `NC(=O)CCn1c(C(=O)c2cccc([N+](=O)[O-])c2)c2ccccc2[n+]1[O-]` here?
Answer: Its value is 4.25%.

Question: Which “hERG current change (%, negative = inhibition) at 10uM” value does the source give for `O=c1[nH]c(=S)n(Cc2ccc(F)cc2)c(O)c1C=NCCCn1ccnc1` here?
Answer: The value was -60.3%.

Question: For `C=CCNc1nc(C(=O)OCC(=O)Nc2ccc(S(N)(=O)=O)cc2)cs1`, which “hERG current change (%, negative = inhibition) at 10uM” value is on record?
Answer: Its value is -1.3%.

Question: Which “hERG current change (%, negative = inhibition) at 10uM” value does the source give for `Cc1ccc(N/C=C(\C2OC(=O)c3ccccc32)[N+](=O)[O-])c(C)c1` (stereo not shown) here?
Answer: Its value is 23%.

Question: With `Cc1cc(N2C(=O)C(O)=C(C(=O)c3ccco3)C2c2ccccc2F)no1` (stereo not shown) as the compound, how does the “hERG current change (%, negative = inhibition) at 10uM” value read?
Answer: The value was 13.8%.

Question: How did the “hERG current change (%, negative = inhibition) at 10uM” value turn out when `CCOC(=O)c1ccc(NC(=O)c2ccc(OC(C)C)c(OC)c2)cc1` was run?
Answer: Its value is -3.47%.

Question: Which “hERG current change (%, negative = inhibition) at 10uM” value does the source give for `COc1ccccc1/C=C\C=N\n1c(-c2ccc(Cl)cc2)n[nH]c1=S` here?
Answer: Its value is 14.3%.

Question: With `CC(=O)c1ccc(OCC(O)CN(C)CCOc2ccc(Br)cc2)cc1` (stereo not shown) as the compound, how does the “hERG current change (%, negative = inhibition) at 10uM” value read?
Answer: The value was 23.4%.

Question: `CCOC(=O)N1CCN(C(=O)Nc2ccc(NC(=O)N3CCN(C(=O)OCC)CC3)cc2)CC1` was tested. Which “hERG current change (%, negative = inhibition) at 10uM” value did it give?
Answer: The value was 17.8%.

Question: `COC(=O)[C@H](C)NC(=O)/C=C/c1ccc(OC)cc1` was tested. Which “hERG current change (%, negative = inhibition) at 10uM” value did it give?
Answer: The value was -12.7%.

Question: Which “hERG current change (%, negative = inhibition) at 10uM” value does the source give for `CC(SCc1nc2sc3c(c2c(=O)[nH]1)CCCC3)C(=O)Nc1ccccn1` (stereo not shown) here?
Answer: Its value is -6.8%.

Question: With `CCOc1ccc(CN2C(=O)c3ccccc3C2C(=O)NCC2CCCO2)cc1` (stereo not shown) as the compound, how does the “hERG current change (%, negative = inhibition) at 10uM” value read?
Answer: The value was 4.63%.

Question: How did the “hERG current change (%, negative = inhibition) at 10uM” value turn out when `Oc1ccc(-c2cn3ccccc3n2)cc1O` was run?
Answer: The value was 5.1%.

Question: How did the “hERG current change (%, negative = inhibition) at 10uM” value turn out when `Cc1ncoc1C(=O)Nc1ccccc1-c1ccccc1` was run?
Answer: The value was -8.12%.

Question: `CCOC(=O)N1CCN(C(=O)c2ccc3c(=O)n(-c4ccccc4F)c(=S)[nH]c3c2)CC1` was tested. Which “hERG current change (%, negative = inhibition) at 10uM” value did it give?
Answer: Its value is 22.3%.

Question: `Cc1onc(-c2ccccc2)c1C(=O)NNC(=S)NC(=O)c1ccc(F)cc1` was tested. Which “hERG current change (%, negative = inhibition) at 10uM” value did it give?
Answer: Its value is 22.8%.

Question: Which “hERG current change (%, negative = inhibition) at 10uM” value does the source give for `CC1(C)C(/C=C/C=C/C=C/C=C2\N(CCCCS(=O)(=O)[O-])c3ccc4ccccc4c3C2(C)C)=[N+](CCCCS(=O)(=O)[O-])c2ccc3ccccc3c21.[Na+]` here?
Answer: Its value is -15.5%.

Question: Which “hERG current change (%, negative = inhibition) at 10uM” value does the source give for `C=CCn1c(Cc2cccs2)nnc1SCC(=O)Nc1ccc(OC)c(OC)c1` here?
Answer: Its value is -0.0755%.

Question: With `O=C(Cn1c(=O)sc2ccccc21)Nc1ccc(S(=O)(=O)N2CCCCC2)cc1` as the compound, how does the “hERG current change (%, negative = inhibition) at 10uM” value read?
Answer: Its value is -13.2%.

Question: For `CC1CCN(C(=O)CSc2nnc(-c3cccnc3)n2C2CCCCC2)CC1`, which “hERG current change (%, negative = inhibition) at 10uM” value is on record?
Answer: Its value is -5.87%.

Question: With `Cc1ccc(NC(=O)COC(=O)c2ccc3c(c2)OCO3)cc1S(=O)(=O)N1CCCCC1` as the compound, how does the “hERG current change (%, negative = inhibition) at 10uM” value read?
Answer: The value was -3.06%.

Question: Which “hERG current change (%, negative = inhibition) at 10uM” value does the source give for `O=C(NCC1CCCN1S(=O)(=O)c1cccs1)C(=O)Nc1ccccc1Cl` (stereo not shown) here?
Answer: Its value is -13.7%.

Question: `CCNC(=S)Nc1cc(C)ccn1` was tested. Which “hERG current change (%, negative = inhibition) at 10uM” value did it give?
Answer: Its value is 13.6%.

Question: How did the “hERG current change (%, negative = inhibition) at 10uM” value turn out when `Cc1cn(C2CC3OCC3O2)c(=O)[nH]c1=O` (stereo not shown) was run?
Answer: Its value is 8.55%.

Question: `CC(=O)Nc1ccc(S(=O)(=O)Nc2ccc(N3CCOCC3)cc2)cc1` was tested. Which “hERG current change (%, negative = inhibition) at 10uM” value did it give?
Answer: The value was 6.22%.

Question: How did the “hERG current change (%, negative = inhibition) at 10uM” value turn out when `CCc1c(C)nc(N)nc1N1N=C1SCC(=O)OC` was run?
Answer: Its value is -0.87%.

Question: How did the “hERG current change (%, negative = inhibition) at 10uM” value turn out when `CC(C)CC(=O)NC(=S)Nc1ccccc1C(=O)Nc1ccccc1` was run?
Answer: Its value is 8.01%.

Question: Which “hERG current change (%, negative = inhibition) at 10uM” value does the source give for `C/C(=N/NC(=O)c1ccc(-c2ccccc2)cc1)c1cccc(O)c1` here?
Answer: The value was 11%.

Question: For `CC(=O)Nc1ccc(NC(=O)C2CCN(C(=O)C3CC(=O)N(c4ccc(C)cc4)C3)CC2)cc1` (stereo not shown), which “hERG current change (%, negative = inhibition) at 10uM” value is on record?
Answer: The value was 12.4%.

Question: With `COc1ccc(N2CCN(CCCNC(=O)c3ccc(CS(=O)(=O)c4ccc(Cl)cc4)o3)CC2)cc1` as the compound, how does the “hERG current change (%, negative = inhibition) at 10uM” value read?
Answer: The value was -77.1%.

Question: For `Cc1cc(C)n(C(C[N+](=O)[O-])c2ccc(Cl)cc2)n1` (stereo not shown), which “hERG current change (%, negative = inhibition) at 10uM” value is on record?
Answer: Its value is -20.4%.

Question: With `COCC1CCCN(C(=O)c2cc(COc3ccc4ncccc4c3)on2)C1` (stereo not shown) as the compound, how does the “hERG current change (%, negative = inhibition) at 10uM” value read?
Answer: The value was 7.8%.

Question: `CC(=O)Nc1nonc1-c1nc2ccccc2n1N(C(C)=O)C(C)=O` was tested. Which “hERG current change (%, negative = inhibition) at 10uM” value did it give?
Answer: The value was 11.9%.

Question: For `Cc1cccc(C)c1NC(=S)N(Cc1cccs1)C1CCCC1`, which “hERG current change (%, negative = inhibition) at 10uM” value is on record?
Answer: Its value is 4.16%.

Question: How did the “hERG current change (%, negative = inhibition) at 10uM” value turn out when `COc1ccc(S(=O)(=O)N(C)C)cc1NC(=O)CCNC(=O)c1ccco1` was run?
Answer: Its value is 16%.

Question: For `COc1ccc(NC2CC(=O)N(c3ccccc3)C2=O)cc1` (stereo not shown), which “hERG current change (%, negative = inhibition) at 10uM” value is on record?
Answer: The value was -2.95%.

Question: With `CN1CCN(S(=O)(=O)c2cccc(C(=O)N(C)CC(=O)Nc3ccc(F)c(F)c3F)c2)CC1` as the compound, how does the “hERG current change (%, negative = inhibition) at 10uM” value read?
Answer: The value was 19.7%.

Question: Which “hERG current change (%, negative = inhibition) at 10uM” value does the source give for `O=C(O)C1C2CCC(O2)C1C(=O)Nc1ccc(Cl)cc1F` (stereo not shown) here?
Answer: Its value is 7.83%.

Question: For `O=C(Cn1ncc2c([nH]c3ccccc32)c1=O)N1CCN(c2ccc(F)cc2)CC1`, which “hERG current change (%, negative = inhibition) at 10uM” value is on record?
Answer: The value was 31.1%.

Question: With `CCC(=O)c1ccc(OCC(=O)c2ccc3c(c2)NC(=O)CO3)cc1` as the compound, how does the “hERG current change (%, negative = inhibition) at 10uM” value read?
Answer: The value was 3.56%.
